Test results as given in patent publication US20140004122A1, “METHODS FOR TREATING OR PREVENTING CHOLESTEROL RELATED DISORDERS” (AMGEN INC., priority 2011, published 2014).

Biological target: D374Y PCSK9 binding to LDLR (Homo sapiens, UniProt Q8NBP7, D374Y)
Assay: Large scale receptor ligand blocking screen and functional classification of ABPs
Conditions: functional assays of the screening
Method: To screen for the antibodies that block PCSK9 binding to LDLR an assay was developed using the D374Y PCSK9 mutant. […] The following protocol was employed in the receptor ligand blocking screen: Costar 3702 medium binding 384 well plates (Corning Life Sciences) were employed in the screen. The plates were coated with goat anti-LDLR (R&D Cat #AF2148) at 2 μg/ml in 1×PBS/0.05% Azide at a volume of 40 μl/well. The plates were incubated at 4° C. overnight. The plates were then washed using a Titertek plate washer (Titertek, Huntsville, Ala.). A 3-cycle wash was performed. The plates were blocked with 90 μl of 1×PBS/1% milk and incubated approximately 30 minutes at room temperature. The plates were then washed using the Titertek plate washer. A 3-cycle wash was performed. The capture sample was LDLR (R&D, Cat #2148LD/CF), and was added at 0.4 μg/ml in 1×PBS/1% milk/10 mM Ca^2+ at a volume of 40 μl/well. The plates were then incubated for 1 hour and 10 minutes at room temperature. […] OD's were read immediately at 450 nm using a Titertek plate reader. […]
Limiting dilution was used to isolate a manageable number of clones from each line. […] The concentration and potency of the antibodies to PCSK9 in the supernatants of those cultures were determined by ELISA and by in vitro functional testing, as described herein.

B1: 9C9: anti-PCSK9 antibody; light/heavy variable region SEQ ID NO 30/64 (antibody, listed as Homo sapiens, V domains shown)
VH: EVQLVESGGGLVQPGGSLRLSCVVSGFTFSSYWMSWVRQAPGKGLEWVANIKQDGSEKYYVDSVKGRFTISRDNAKNSLYLQMNSLRAEDTAVYYCARESNWGFAFDIWGQGTMVTVSS
VL: QSVLTQPPSASGTPGQRVTISCSGSSSNIGSKTVNWYQQVPGTAPKLLIYRNNQRPLGVPDRFSGSKSGTSASLAISGLQSEDEADYYCAAWDDSLNWVFGGGTKLTVL
  neutralizing ability (blocking PCSK9/LDLR): weak neutralizers
